According to PubChem BioAssay AID1345082 (National Center for Advancing Translational Sciences (NCATS), 2018):
Among all 94,000 compounds or so, about 4,000 (4.3%) were called active. Inconclusive results, whose numbers are uncertain, are shown with a selection of clear calls. Calls come from the whole dose curve; as a rule, active = well fitted inhibition curve with a large enough effect; inconclusive = small, poorly fitted or top-dose-only effect; inactive = no such curve, though single readings can be large or run the other way. Where the call is inconclusive, the potency comes from a doubtful curve fit.

Assay: Cytotoxic Profiling in NIH 3T3 Cell Line of Diverse Libraries Using Quantitative High-Throughput Screening; note: nearly all actives have a fitted effect of over 55% in size
Details: NIH 3T3 viability, CellTiter-Glo ATP luminescence, 48-72 h; series mostly up to 96.7 µM
In short: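 Cells were seeded at 400 per well, treated with pin-transferred compound, and kept 48 or 72 hr at 37 °C before CellTiter-Glo addition and luminescence imaging of cellular ATP.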
Potency is the fitted concentration of half-maximal effect; tags give direction and shape of the fitted curve.

| Structure (SMILES) | Potency |
| --- | --- |
| COc1ccc(NC(=O)c2ccc(Cn3ccn4nc5c(c4c3=O)CCCC5)cc2)cc1OC | inconclusive: 35.5 µM [inhibitor, partial curve] |
| CCOCC(=O)N1CCC(N2C(=O)C3(CCCCC3)C2c2ccncc2)CC1 (stereo unspecified) | inactive |
| CCOC(=O)c1ccc(NC(=O)Cn2c(=O)n(CC)c(=O)c3c2cc(C)n3C)cc1 | inconclusive: 12.6 µM [inhibitor, full curve] |
| O=C1N(Cc2ccccc2)CCOC12CCN(Cc1cc(F)ccc1F)CC2 | inconclusive: 39.8 µM [inhibitor, partial curve, poor fit] |
| CCCn1cnc2c1CN(S(C)(=O)=O)[C@H](C(=O)OC)C2 | inactive |
| COCC1CN(Cc2ccc(OC)c(OC)c2Cl)CC12CCNCC2 (stereo unspecified) | inconclusive: 39.8 µM [inhibitor, partial curve] |
| CCOC(=O)C1CCCN(C(=O)C2CCc3nnc(C4CC4)n32)C1 (stereo unspecified) | active: 25.1 µM |
| Cc1cccc2c1nc1n2[C@@H](CNC2CCN(C)CC2)COC1 | inactive |
| COc1ccc(NC(=O)c2cc3c(N4CCSCC4)nc(C)cn3n2)cc1OC | inactive |
| COCCNC(=O)CNC(=O)c1cccc(-c2ccc(C(F)(F)F)cc2)c1 | inconclusive: 44.7 µM [inhibitor, partial curve, poor fit] |
| CN(C)C(=O)c1nc(-c2ccc(Cl)cc2Cl)c2ccccn12 | inconclusive: 50.1 µM [inhibitor, partial curve, poor fit] |
| CN(C)c1ccc(C(=O)N2CCC3(CC2)NC(=O)N(c2ccc(F)cc2)N3)cc1 | inconclusive: 39.8 µM [inhibitor, partial curve, poor fit] |
| CCOc1ccccc1C(=O)NC1CCN(c2cc(-c3ccc(F)cc3)[nH]n2)C1 (stereo unspecified) | inconclusive: 39.8 µM [inhibitor, partial curve, poor fit] |
| COc1cccc(-c2cc(-c3cn[nH]c3)c3cncn3c2)c1 | inconclusive: 17.8 µM [inhibitor, full curve, poor fit] |
| Cc1cccc2c1nc1n2[C@@H](CNS(=O)(=O)c2ccc(F)cc2)COC1 | inconclusive: 35.5 µM [inhibitor, partial curve] |
| N#Cc1cccc(-c2n[nH]c3c2CC(=O)N(Cc2ccccn2)C3)c1 | inconclusive: 89.1 µM [inhibitor, partial curve, poor fit] |
| CN(C)[S+](=O)([O-])c1ccc2c(c1)OCCN(Cc1ccc(F)cc1)C2 | inconclusive: 56.2 µM [inhibitor, partial curve, poor fit] |
| Fc1ccc(-c2cc(CC3(NCc4ccc5c(c4)OCO5)COC3)no2)cc1 | inconclusive: 56.2 µM [inhibitor, partial curve, poor fit] |
| CC(=O)N[C@H]1CC[C@]2(C)CC[C@@H]([C@H](C)C(=O)NCc3cccs3)[C@H](O)[C@H]2[C@@H]1C | inconclusive: 10 µM [inhibitor, full curve, poor fit] |
| CNC(=O)[C@@H]1CN(C(=O)CCn2nc(C)cc2C)C[C@H]1c1n[nH]c(C)n1 | inactive |
| O=C(NCc1ccccc1)c1ccccc1OC1CN(Cc2cccc(C(F)(F)F)c2)C1 | active: 12.6 µM |

| Structure (SMILES) | Potency |
| --- | --- |
| Cc1cc(C(=O)NCC2(COc3ccc(S(C)(=O)=O)cc3)C[C@@H](O)[C@@H](O)C2)n(C)n1 (stereo partly specified) | inactive |
| CN(CCc1ccccn1)C(=O)CCC[C@@H]1[C@H]2CCCN3CCC[C@@H](CN1Cc1cccnc1)[C@@H]23 | inactive |
| COc1ccc(CNC(=O)CC[C@]23CC[C@](C)(O)C[C@H]2C(C)(C)C[C@@H]3NCc2ccccn2)cc1 | inactive |
| CCC(=O)N1CCc2c(sc3ncnc(NCc4ccccc4)c23)C1 | inconclusive: 44.7 µM [inhibitor, partial curve, poor fit] |
| CCN1C(=O)CCN(Cc2cccc(OC(F)(F)F)c2)CC12CCOCC2 | inconclusive: 31.6 µM [inhibitor, full curve] |
| COc1ccc(C(=O)N2C[C@@H](C(N)=O)[C@H](c3n[nH]c(C)n3)C2)c(OC)n1 | inactive |
| COc1ccc(-c2ccccc2)cc1N1C(=O)[C@@H]2C[C@H]1CN2C(=O)C(C)(C)C | inconclusive: 89.1 µM [inhibitor, single point] |
| COCCN1C[C@H]2COc3ccccc3[C@H]2N(C(=O)c2ccccc2OC)CCC1=O | inconclusive: 79.4 µM [inhibitor, single point] |
| O=C(c1cccc(F)c1)N1CCC2(CC1)N=C(c1ccccc1)NO2 | inactive |
| CC(=O)NC1(C)CCCN(Cc2cccc(-c3ccccc3)c2)C1 (stereo unspecified) | inconclusive: 100 µM [inhibitor, partial curve, poor fit] |
| COc1cccc(S(=O)(=O)N2C[C@@H](F)C[C@H]2C(=O)N2CCCCC2)c1 | inactive |
| CCc1ccccc1NC(=O)c1cc2c(s1)CN(C(C)C)C2 | inconclusive: 39.8 µM [inhibitor, partial curve, poor fit] |
| CC(=O)N1CC2(Cc3ccccc31)CN(C(=O)Cc1ccccn1)C2 | inactive |
| O=C(NCC1CCCCC1)c1cn2cc(-c3cccc(C(F)(F)F)c3)sc2n1 | inconclusive: 20 µM [inhibitor, full curve, poor fit] |
| COc1ccc(C(=O)NC2CC2)c(OC2CCN(Cc3cccc(SC)c3)CC2)c1 | inconclusive: 56.2 µM [inhibitor, partial curve, poor fit] |
| COc1ccc(CCC(=O)N2CCC[C@H]2c2nc(-c3ccccc3Cl)no2)cc1 | inconclusive: 56.2 µM [inhibitor, partial curve, poor fit] |
| COCCNC(=O)c1cc(-c2cccc(C(F)(F)F)c2)c2nncn2n1 | inactive |
| CN(CCNC(=O)c1cccnc1N1CC2CC(C1)[C@H]1CCCC(=O)N1C2)C1CCCCC1 (stereo partly specified) | inconclusive: 70.8 µM [inhibitor, partial curve, poor fit] |
| COc1cc(NC(=O)Cn2c(-c3ccccc3)nc(C)c(CCO)c2=O)cc(OC)c1 | inconclusive: 50.1 µM [inhibitor, partial curve, poor fit] |
| Cc1ccc(NC(=O)N2CCCC(Cn3c(C4CC4)nc4cccnc43)C2)cc1F (stereo unspecified) | inconclusive: 44.7 µM [inhibitor, partial curve, poor fit] |
| O=C(Cc1cccc(F)c1)N1CCC[C@H]1c1nc(-c2ccc(F)cc2)n[nH]1 | inconclusive: 56.2 µM [inhibitor, partial curve, poor fit] |

| Structure (SMILES) | Potency |
| --- | --- |
| COCCOc1ccc2c(n1)CCN(C(=O)Cc1ccc(F)cc1)C2 | inactive |
| Cc1noc(C)c1-c1cc2c(cc(C)n2CCN(C)C)c(-c2ccccc2O)n1 | active: 31.6 µM |
| Cc1nc(-c2cccc(Cl)c2)n(CC(=O)Nc2ccccc2F)c(=O)c1CCO | inconclusive: 44.7 µM [inhibitor, partial curve, poor fit] |
| Cc1cc(C)cc(OCC(=O)c2ccc3c(c2)N(CC(=O)N(C)Cc2ccccc2)C(=O)CO3)c1 | inconclusive: 44.7 µM [inhibitor, partial curve, poor fit] |
| Cc1ccc(CNC(=O)CCc2conc2-c2ccc(F)cc2)o1 | inconclusive: 70.8 µM [inhibitor, partial curve, poor fit] |
| COc1ccc(C2Cn3nnc(C(=O)N4CCN(C(=O)c5cc(C)ccc5C)CC4)c3CO2)cc1 (stereo unspecified) | inconclusive: 44.7 µM [inhibitor, partial curve, poor fit] |
| Cc1cc(C)cc(-c2ccc(CN3CCCC(NC(=O)N(C)C)C3)cc2)c1 (stereo unspecified) | inconclusive: 39.8 µM [inhibitor, partial curve, poor fit] |
| O=C(NCCc1noc(-c2ccccc2)n1)C1CCCC1 | inactive |
| Cc1noc(C)c1-c1cc2cc(CO)oc2c(N2CCS(=O)(=O)CC2)n1 | inconclusive: 50.1 µM [inhibitor, partial curve, poor fit] |
| CCN1c2cc(C(=O)Nc3ccc(Cl)c(C)c3)ccc2C(=O)N2CCCCCC21 (stereo unspecified) | inconclusive: 39.8 µM [inhibitor, partial curve, poor fit] |
| O=C(Nc1ccc(F)cc1)N1CCOc2ccc(CN3CCc4ccccc4C3)cc2C1 | inconclusive: 44.7 µM [inhibitor, partial curve, poor fit] |
| Cc1noc2c(NCc3cnccn3)cc(-c3ccccc3)nc12 | inconclusive: 50.1 µM [inhibitor, partial curve] |
| CCCC1CCN(C(=O)c2coc(COc3ccc4ccc(OC)cc4c3)n2)C1 (stereo unspecified) | inconclusive: 63.1 µM [inhibitor, partial curve, poor fit] |
| COc1ccc2c(C)c(C(=O)N3CCOC(c4ccc(F)cc4)C3)oc2c1 (stereo unspecified) | inconclusive: 56.2 µM [inhibitor, partial curve, poor fit] |
| Cc1ccccc1NC(=O)c1cc2n(n1)CC(c1ccc(Cl)cc1)OC2 (stereo unspecified) | inconclusive: 50.1 µM [inhibitor, partial curve, poor fit] |
| COc1ncccc1-c1n[nH]c2c1CC(=O)N(c1ccccc1)C2 | inconclusive: 50.1 µM [inhibitor, partial curve, poor fit] |
| CC(C)OCCCNC(=O)c1cc(-c2ccccc2F)nc2c1cnn2C | inconclusive: 44.7 µM [inhibitor, partial curve, poor fit] |
| O=C(Cn1ccn2nc(-c3ccccc3)c(CO)c2c1=O)Nc1cccc(C(F)(F)F)c1 | inactive |
| O=C(NCc1cccnc1)c1nc(-c2cccc(C(F)(F)F)c2)c2ccccn12 | inconclusive: 50.1 µM [inhibitor, partial curve, poor fit] |
